# Experimental data taken from the supplement of paper PMC11417369.
# Some of the results follow.
# Test system: PfHDP1 homeodomain (GST-tagged)
# Experiment: gcPBM binding intensity (ln(normalized median fluorescence intensity)); higher = stronger DNA binding
# Summary of the method: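 Binding of GST-tagged P. falciparum DNA-binding domains, expressed in E. coli and used at about 25 μg on average, was carried out for 1 h in 1× PBS containing 1% milk, 0.2 mg/ml BSA, 0.5% salmon testes DNA and 0.03% Triton X-100. The target was an Agilent 4 × 180k array of primer-extended double-stranded 36-bp intergenic genomic probes plus negative controls, read with Alexa488 anti-GST antibody at 488 nm. Binding intensity is the highest Masliner-normalised natural-log median intensity across replicate spots of either probe orientation.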
row,Sequence,gcPBM binding intensity (ln)
1,AAAGAAATATATACAAAAATATGAACAATTTATTAT [XGTACX_negctrl_site78],6.22
2,TTTTCGATGTTGGTAGGATGTATGGTACACGTAGTA [TGCATGCA_negctrl_site61],6.59
3,GAGTTTACACTCCCTTGTACATATTCATTTTTATTC [XGTACX_site5208],7.02
4,TGAATAAATATATATACACACATATATGTATATATT [CACACA_site1642],6.38
5,TATATATATAATATATGTACATATTAATTATGTATA [XGTACX_site5366],7.4
6,AATAAAAGATCATTTATTCTTTTTTTTCTTTTTAAA [CACACA_negctrl_site1256],5.88
7,TAAATAAATTTATACACACACACACCGATATATATA [CACACA_site4622],7.24
8,GAATGCCTTGAAAATAGTACAATTAAGAAAAAATAC [XGTACX_site8002],6.53
9,AAAATACATAAACGTTCACACATTTAAGATAACGAG [CACACA_site5345],6.37
10,TTTTTTTTTTTTTACACACACAAAATATTATCTGTA [CACACA_site5378],6.59
11,AATGAAATAAAATAAAGTACATATATGTAAAAGTAG [XGTACX_site5650],7.44
12,ATATATATAATATGATGTACATATTTATTTATATAT [XGTACX_site7333],6.74
13,AATTGAAAAGAATGAAGTACACATTTGATGATACAT [XGTACX_site5182],6.35
14,ATATAAAAAAAAGATGAAAAAAAAAATGAAAGAAAG [CACACA_negctrl_site1266],6.6
15,TATATGAAGCTATAGACACACATATAAAAATATAAT [CACACA_site4850],6.49
16,GAATTTATGAACTGTGCATGTAAAAAAAACAACAAA [TGCATGCA_site449],8.31
17,TATAATAATATATATTGTACACACAAAATGGGAAAA [XGTACX_site3911],7.17
18,TACATCTGTAATGTGTGTACATATATGTATATATTT [XGTACX_site1805],6.7
19,CATAAACTTTTTAACACACACTTATATATATATATA [CACACA_site4747],9.16

row,Sequence,gcPBM binding intensity (ln)
1,AAAAATTCTTTTTCATCTATATGCAGAAAGAAAAAG [CACACA_negctrl_site1201],5.9
2,CTAAATAAAGTTAACACACACATAATATATATATGT [CACACA_site486],6.43
3,TAATTTTTATGAAGAAGTACAAAATCTACTATCATA [XGTACX_site4985],5.6
4,ATAAAAATATGATCAACACACGATTAAATATTCATA [CACACA_site1495],6.39
5,AGAAATACAAAATAAATATAAGAAACAAAATATTTA [CACACA_negctrl_site780],6.52
6,AAAAGGTTATCAATATGTACATATTTTTTTATTTTT [XGTACX_site3277],6.4
7,TGAAAAATAAATAAATGTACATATATATATATATAC [XGTACX_site7310],6.72
8,TATTTCATCATATTGTGTACTTAATTTATATAATTA [XGTACX_site5753],6.78
9,TTTTAATTAAAACACACACACACATATATATATATA [CACACA_site2291],9.11
10,GTATCAAAAGAATACACACACACATACATATATATA [CACACA_site3796],6.99
11,ATTTTAGAATAAATTTTTTACATTAAAAAACTATTT [CACACA_negctrl_site1414],5.93
12,ACTCTCTTATATTAAACACACATATTTATAGGTATA [CACACA_site7302],7.05
13,TGAACATATTAAAATTGTACATATGCACAATATGTA [XGTACX_site6801],9.28
14,AAGGATATAACATACACACACACACGGATATAAATA [CACACA_site7867],6.85
15,CATACAATAAATATGGTGCATTTTATGTAACCGTTT [GTGCAC_site9420],9.78
16,CATCTAAATTGTAGTTGTACACCTTAATCTTATTAC [XGTACX_site7547],7.69
17,TATTTTATCATTTGCACACGCACACCGACATAAAAA [CACACA_site4348],10.6
18,AAAAAAAAAAAAATGTAATTTTTTAATTATTTATAT [GTGCAC_negctrl_site436],6.27
19,CATATATTTTTGTATAGTACTTTTTTTATTCGTTTT [XGTACX_site1860],6.61

row,Sequence,gcPBM binding intensity (ln)
1,TAAAAGTTAATATAAACACACAAAAATTAATAAATA [CACACA_site6316],6.44
2,AATTTCTATTTTGTGAGTACATACTCCTATTATATA [XGTACX_site3210],6.67
3,ATAATGGAGAAATAAGCATGCATTATATTATAAAAA [TGCATGCA_site325],6.89
4,TGAATATTTCTATATACACACATATAAATATAAATA [CACACA_site7593],6.41
5,TTATCGGTATAATATAGTACATATAGATATATAATA [XGTACX_site1440],6.31
6,TGATAATTTTTTACATGTACAAGTTTGTTTTTGCAT [XGTACX_site125],6.52
7,ATATTACTTCCTAAGTGTACAAGTAAGGAGAAAAAA [XGTACX_site3921],6.56
8,GATAAAATGGATGGATGTACATTATTTCCATATAAT [XGTACX_site7781],6.35
9,AGATGTTTTTATATATGTACTTAAATACACAAATAT [XGTACX_site8250],6.5
10,AAAAAAAAAAAAAACACACACACAAAATAAACAAAC [CACACA_site2720],6.86
11,ATAATACACGATTATTTTCCCTTTATGTAAATATAT [CACACA_negctrl_site1107],6.62
12,TATTTTATCTATTTGTGTACTTATATTTATGCAAAA [XGTACX_site1499],7.03
13,TATATATATAATATTGCACACAAAATTAAAAGTAAA [CACACA_site7889],9.61
14,AAAAAAAAAAAATGTGTGCACATTATTTCAACTTAA,10
15,ATAAATAATATATATACACACATATCTATACATATT [CACACA_site487],6.8
16,AAATTATTAAAAAAAAGTACATATATATATATATAT [XGTACX_site8313],9.38
17,TTTTTTTTTTTTTTATGTACGAAAGAAAAGCACATA [XGTACX_site8261],6.52
18,TTTAGATAATTCATTACACACATGTATATTTATATA [CACACA_site7602],6.38
